In PubChem BioAssay AID504845 (National Center for Advancing Translational Sciences (NCATS), 2011):
Screen size: about 390,000 compounds; about 150 (0.038%) were called active. Inconclusive means that the source gave no clear call. Such entries were picked first, then a sample of the others. Calls come from the whole dose curve; as a rule, active = well fitted inhibition curve with a large enough effect; inconclusive = small, poorly fitted or top-dose-only effect; inactive = no such curve, though single readings can be large or run the other way. Potencies of inconclusive entries are doubtful fits and often do not repeat.

These molecules were tested against Regulator of G-protein signaling 4 (Homo sapiens) (UniProt P49798) (assay: Inhibitors of Regulator of G Protein Signaling (RGS) 4: qHTS). Details: Transcreener GDP fluorescence polarization, RGS4-accelerated GTP hydrolysis; series mostly up to 114 µM.
Summary of the method: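 MLSMR compounds (23 nl, pin-transferred) preincubated 10 min at room temperature with a 500nM (2x) first reagent, then RGS4 at 900nM (2x) plus Transcreener GDP mix added; fluorescence polarization (620/688 nm) read before and after 90 min at 30 °C.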
Note: nearly all actives have a fitted effect of over 75% in size.
Potency is the fitted concentration of half-maximal effect; tags give direction and shape of the fitted curve.

Chain of UniProt P49798 (P49798 whole entry, looked up): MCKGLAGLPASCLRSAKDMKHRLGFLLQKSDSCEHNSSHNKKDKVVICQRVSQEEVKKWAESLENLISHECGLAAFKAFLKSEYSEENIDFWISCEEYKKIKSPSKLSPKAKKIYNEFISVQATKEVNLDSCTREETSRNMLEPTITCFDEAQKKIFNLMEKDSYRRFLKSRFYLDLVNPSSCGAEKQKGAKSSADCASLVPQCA

Compound	Potency
COc1ccc(Nc2nc(-c3sc(C)nc3C)cs2)c(OC)c1	inconclusive: 100 µM [inhibitor, partial curve, poor fit]
Cc1ccnc(NS(=O)(=O)c2ccc(NC(=O)C3COc4ccccc4O3)cc2)n1 (stereo not given)	inconclusive: 44.7 µM [inhibitor, partial curve, poor fit]
O=C(NCc1ccc2c(c1)OCO2)c1sccc1Br	inconclusive: 89.1 µM [inhibitor, partial curve, poor fit]
Cc1ccc(NC(=O)C2CCCC2)cc1Cl	inactive
c1ccc(NNC2=NCCS2)cc1	inconclusive: 89.1 µM [inhibitor, partial curve, poor fit]
CCN1CCN(Cc2ccc(NC(=O)c3ccc(C)c(/C=C/c4cnc(Nc5cc(N6CCNCC6)nc(C)n5)cn4)c3)cc2C(F)(F)F)CC1	inconclusive: 31.6 µM [inhibitor, full curve, poor fit]
CCc1ccc(CNC(=O)C2CCCN(c3nnc(C)c4c(C)n(-c5ccccc5)nc34)C2)cc1 (stereo not given)	inconclusive: 79.4 µM [inhibitor, single point]
CC(Sc1nc(C(C)(C)C)cc(-c2ccccc2)c1C#N)C(=O)Nc1ccccc1 (stereo not given)	inconclusive: 56.2 µM [inhibitor, partial curve, poor fit]
Cc1c(N=C2C=C(Br)C(=O)C(Br)=C2)c(=O)n(-c2ccccc2)n1C	inconclusive: 89.1 µM [inhibitor, partial curve, poor fit]
O=C(NC12CC3CC(CC(C3)C1)C2)c1cc(F)c(F)cc1Cl	inconclusive: 89.1 µM [inhibitor, single point]
O=C(NCCc1ccccc1)N1c2ccccc2Sc2ccccc21	inconclusive: 89.1 µM [inhibitor, partial curve, poor fit]
COCCCNC(=S)NC1CC2CCCC(C1)N2Cc1cccs1 (stereo not given)	inactive
CCCCc1ccc(CC(=O)O)cc1	inconclusive: 89.1 µM [inhibitor, single point]
CN(CC(=O)Nc1n[nH]c(=S)s1)S(=O)(=O)c1cccc2cccnc12	inconclusive: 50.1 µM [inhibitor, partial curve, poor fit]
COc1cccc2c1C(=O)c1c(O)c3c(c(O)c1C2=O)C[C@@](O)(C(=O)CO)C[C@@H]3O[C@H]1C[C@H](N)[C@@H](O)[C@H](C)O1	inconclusive: 79.4 µM [inhibitor, partial curve, poor fit]
Cc1noc(C)c1COc1cccc(C(=O)OCC(=O)NC(=O)c2ccc(OC(F)F)cc2)c1	inconclusive: 28.2 µM [inhibitor, full curve, poor fit]
CCCC(c1nnnn1C(C)(C)CC)N(Cc1ccco1)Cc1cc2ccc(OC)cc2[nH]c1=O (stereo not given)	inconclusive: 79.4 µM [inhibitor, partial curve, poor fit]
Cc1ccc2[nH]c(=O)c(C3C(C#N)=C(N)Oc4c3ccc3cccnc43)cc2c1 (stereo not given)	inconclusive: 10 µM [inhibitor, full curve, poor fit]
COc1ccc(/C=N/NC(=S)Nc2cccc(C(=O)O)c2)cc1OC	inconclusive: 89.1 µM [inhibitor, single point]
COc1cccc(CNC(=O)C(=O)NCC(c2cccs2)S(=O)(=O)c2ccccc2)c1 (stereo not given)	inconclusive: 89.1 µM [inhibitor, single point]

Compound	Potency
N=C(N)c1ccc(N)cc1	inconclusive: 37.7 µM [inhibitor, single point]
O=C(N/N=C/c1cn[nH]c1-c1ccc(Cl)cc1)c1ccc([N+](=O)[O-])cc1	inconclusive: 89.1 µM [inhibitor, partial curve, poor fit]
S=C(NCC1CCCO1)c1ccc(Br)cc1 (stereo not given)	inconclusive: 112 µM [inhibitor, partial curve, poor fit]
CCN(CC(O)Cn1c2ccccc2c2ccccc21)S(=O)(=O)c1ccc(C)cc1 (stereo not given)	inactive
O=C(Cc1c[nH]c2ccccc12)NCc1ccc2c(c1)OCO2	inactive
Cc1ccc(S(=O)(=O)NC(=O)c2cc(C)n(-c3ccc(N(C)C)cc3)c2C)cc1	inconclusive: 79.4 µM [inhibitor, partial curve, poor fit]
CCCCCCCCCCCCCCCCCCc1ccc(C(=O)/C=C/C(=O)O)cc1	inconclusive: 37.7 µM [inhibitor, partial curve, poor fit]
CCn1c(=O)c2sccc2n2c(CCCC(=O)N3CCN(c4ccc(F)cc4)CC3)nnc12	inactive
O=C(O)c1cccc(S(=O)(=O)Nc2ccc3oc(=O)sc3c2)c1	inconclusive: 44.7 µM [inhibitor, partial curve, poor fit]
Cc1ccc(C(=O)C2=C(O)C(=O)N(Cc3cccnc3)C2c2cccc(Oc3ccccc3)c2)o1 (stereo not given)	inactive
CC(=NNC(=S)Nc1ccccc1Cl)c1ccccn1	inconclusive: 89.1 µM [inhibitor, single point]
Clc1ccc(Cn2cc(/C=N/n3cnnc3)c3ccccc32)c(Cl)c1	inconclusive: 79.4 µM [inhibitor, partial curve, poor fit]
Nc1nnnn1/N=C/c1ccc(Cl)cc1	inconclusive: 44.7 µM [inhibitor, partial curve, poor fit]
O=C(CSc1nc(-c2ccccc2)ns1)NCC1CCCO1 (stereo not given)	inconclusive: 70.8 µM [inhibitor, single point]
O=C(Nn1c(-c2ccc(Br)cc2)nc2ccccc2c1=O)c1cccnc1	inconclusive: 35.5 µM [inhibitor, full curve, poor fit]
Cc1ccc(CSc2nnc(SCC(=O)N/N=C/C=C/c3ccco3)s2)cc1	inactive
CCCC/C=C1/CCC(CN(C)C)C1=O (stereo not given)	inactive
CCC(=O)OCC(=O)Nc1ccc2c(c1)OCO2	inconclusive: 89.1 µM [inhibitor, single point]
O=C(O)c1ccccc1C(=O)NNc1ccc(F)cc1	inconclusive: 39.8 µM [inhibitor, partial curve, poor fit]
COc1ccc(-n2cc(-c3ccccc3)[nH]c2=S)cc1	inconclusive: 100 µM [inhibitor, partial curve, poor fit]
